Measurements taken from PubChem BioAssay AID248 (DTP/NCI, 2004).
Toxic doses and inconclusive results are not listed. Not every entry of the source has a single result; some have several. The list is limited to them. There may be further records. The values listed for one entry are repeats in other runs, samples, wells, individuals or studies. A tag in brackets gives the origin of a value. The letters are not those of the source and start again with each entry.

System: L1210 leukemia ip in BDF1 mice, survival T/C
Test: NCI In Vivo Anticancer Drug Screen. Data for tumor model L1210 Leukemia (intraperitoneal) in B6D2F1 (BDF1) mice
Details: endpoint: mean survival time, higher = longer survival

CC(C)CCCC(C)C1CCC2C3CCC4CN(N=O)CCC4C3CCC12C (centres undefined)
T/C (dose: 400.0 mg/kg/injection, schedule: Q01DX001 (sc), vehicle: steriod suspending solution): 98 % of control and 168 % of control

COC1C(CO)OC(n2cnc3c(=S)nc(N)[nH]c32)C1O (centres undefined)
T/C (dose: 100.0 mg/kg/injection, schedule: Q01DX005 (ip), vehicle: saline): 117 % of control and 157 % of control

O=C(NP(=O)(N1CC1)N1CC1)OCc1ccccc1
T/C (dose: 24.0 mg/kg/injection, schedule: Q01DX Z (ip), vehicle: saline): 122 % of control, 158 % of control, 168 % of control

O=NN(CCCl)C(=O)NC1CCC(C(=O)O)CC1 (centres undefined)
T/C (dose: 62.0 mg/kg/injection, schedule: Q01DX001 (ip), vehicle: saline with Tween-80): 182 % of control [sample A] and 107 % of control [sample B]

COC(=O)N1c2ccccc2C=CC1C#N (centres undefined)
T/C (dose: 200.0 mg/kg/injection, schedule: Q04DX003 (ip), vehicle: saline with Tween-80): 105 % of control and 155 % of control

O=C(Nc1ccc(C2=NCCN2)cc1)c1ccc(C(=O)Nc2ccc(C3=NCCN3)cc2)c(Cl)c1
T/C (dose: 4.0 mg/kg/injection, schedule: Q01DX Z (ip), vehicle: saline): 117 % of control and 152 % of control | T/C (dose: 8.0 mg/kg/injection, schedule: Q01DX010 (ip), vehicle: other): 118 % of control, 121 % of control, 188 % of control | T/C (dose: 24.0 mg/kg/injection, schedule: Q03DX Z (ip), vehicle: saline): 123 % of control and 158 % of control | T/C (dose: 32.0 mg/kg/injection, schedule: Q01DX Z (ip), vehicle: saline): 114 % of control, 157 % of control, 193 % of control

CCCCCC(C)(C)O
T/C (dose: 400.0 mg/kg/injection, schedule: Q01DX001 (ip), vehicle: saline): 108 % of control and 151 % of control

CC[C@@]1(O)C(=O)OCc2c1cc1n(c2=O)Cc2cc3ccccc3nc2-1
T/C (dose: 2.0 mg/kg/injection, schedule: Q01DX Z (sc), vehicle: saline): 96 % of control and 152 % of control

CC(C)=CCC1=C(O)c2ccccc2C(=O)C1=O
T/C (dose: 25.0 mg/kg/injection, schedule: Q01DX Z (ip), vehicle: water): 94 % of control, 150 % of control, 151 % of control

COc1cc2c(c(OC)c1OC)-c1cc(I)c(O)cc1[C@@H](NC(C)=O)CC2
T/C (dose: 400.0 mg/kg/injection, schedule: Q01DX001 (ip), vehicle: carboxymethylcellulose (CMC)): 119 % of control and 150 % of control

CS(=O)(=O)OCCC(=O)NCNC(=O)CCOS(C)(=O)=O
T/C (dose: 42.0 mg/kg/injection, schedule: Q01DX Z (ip), vehicle: carboxymethylcellulose (CMC)): 109 % of control and 151 % of control
